Screen size: about 410,000 compounds; about 5,000 (1.2%) were called active. Inconclusive results, whose numbers are uncertain, are shown with a selection of clear calls. The call rests on the fitted dose curve; in most records, active means well fitted inhibition curve with a large enough effect; inconclusive means small, poorly fitted or top-dose-only effect; inactive means no such curve, though single readings can be large or run the other way. Potencies of inconclusive entries are doubtful fits and often do not repeat.
Test: qHTS for Inhibitors of TGF-b; further: nearly all actives have a fitted effect of over 65% in size
Conditions: HepG2 CAGA-GFP TGF-b/SMAD3 reporter, GFP fluorescence, 18 h, TGF-beta stimulated, 500 pg/mL final; series mostly up to 46.1 µM
How it was run: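 TGF-beta reporter screen: HEPG2 CAGA-GFP, 1% FBS, 500 pg/mL TGF-beta final, 18 h; per-cell GFP summed per well; curves fitted and categorized by class.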
Potency means the concentration at half of the fitted maximal effect; tags describe the fitted curve by direction and shape.

SMILES	Potency
COc1ccc(-c2cc(C(=O)NCc3ccc(C)cc3)c3cc(C(C)C)ccc3n2)cc1	inactive
Cc1ccc(NC(=O)c2cccc(S(=O)(=O)N3CCN(c4ccc(F)cc4)CC3)c2)nc1	inconclusive: 35.5 µM [inhibitor, partial curve, poor fit]
COc1cc(/C=C/C(=O)OCc2csc(CC(=O)Nc3ccc(C)cc3)n2)ccc1OCC#N	inconclusive: 22.4 µM [inhibitor, partial curve, poor fit]
COc1ccc(-c2c(-c3ccccc3OC)oc3ccccc23)cn1	inconclusive: 7.08 µM [inhibitor, partial curve, poor fit]
O=C(Cn1nnc(-c2cccc(C(F)(F)F)c2)n1)NCc1ccc(F)cc1	inactive
COc1ccc(-c2nnc(CSc3nc4ccccc4c(=O)n3CC(C)C)o2)cc1OC	inconclusive: 35.5 µM [inhibitor, single point]
CCCC[C@H]1COCCS(=O)(=O)N1Cc1cccc(Cl)c1	inconclusive: 35.5 µM [inhibitor, single point]
CN(Cc1ccco1)C(=O)CN1C(=O)NC(c2ccccc2)(c2ccccc2)C1=O	inactive
CCN(CC(=O)Nc1ccc2c(c1)OCCO2)C(=O)c1ccc([N+](=O)[O-])s1	inconclusive: 35.5 µM [inhibitor, single point]
Cc1ccc(C)c(NS(=O)(=O)c2cc(C(=O)NCCC3=CCCCC3)ccc2C)c1	active: 20 µM
COc1ccc(-c2nc3cc(C)c(Br)c(C)n3c2CC(C)(C)C)cc1OC	inconclusive: 35.5 µM [inhibitor, single point]
O=C(CSc1nc2ccccc2s1)c1ccc(O)cc1O	inconclusive: 22.4 µM [inhibitor, single point]
CCCOc1cccc(C(=O)N2CCCCC2CCN2CCCCC2)c1 (stereo not given)	inactive
CC1(C(=O)Nc2ccccc2Br)CCN1C(=O)Cc1ccc(Cl)cc1Cl (stereo not given)	inactive
Cc1ccc(CN2CCN(c3cccc4[nH]ccc34)CC2)cc1	inactive
Cc1ccc(CN2C(=O)c3ccccc3NC2c2cc(Br)ccc2O)cc1 (stereo not given)	inconclusive: 35.5 µM [inhibitor, single point]
Cc1noc(C)c1COc1ccc(C(=O)OCC(=O)NCc2ccccc2Cl)cc1	inconclusive: 35.5 µM [inhibitor, single point]
CCOc1ccccc1C(=O)NC(C(=O)Nc1cccc(S(N)(=O)=O)c1)C(C)C (stereo not given)	inconclusive: 1.12 µM [inhibitor, full curve]
CC(C)Nc1ccc(C(CC(N)=O)NC(=O)c2ccccc2)cc1[N+](=O)[O-] (stereo not given)	inactive
Cc1ccc(N(Cc2cccs2)C(=O)c2ccccc2[N+](=O)[O-])cc1	inconclusive: 10 µM [inhibitor, partial curve, poor fit]
COc1ccc(-n2c(=S)[nH]c3cc(C(=O)NCc4ccc(F)cc4)ccc3c2=O)c(OC)c1	inconclusive: 10 µM [inhibitor, partial curve, poor fit]
COc1cc(NC(=S)N2CCC(C(O)(c3ccccc3)c3ccccc3)CC2)cc(OC)c1	inconclusive: 3.98 µM [inhibitor, partial curve, poor fit]

SMILES	Potency
O=C(NCCSCc1ccccc1)c1ccc(C2SCC(=O)N2Cc2ccccc2)cc1 (stereo not given)	inconclusive: 1.78 µM [inhibitor, full curve, poor fit]
O=[N+]([O-])c1ccc(-[n+]2ccc3ccccc3c2)c([N+](=O)[O-])c1	active: 5.01 µM
COc1ccc(C2C=C(c3ccc(Cl)cc3)Nc3nc(NC(=O)CCC(=O)O)nn32)cc1 (stereo not given)	inactive
Cc1ccccc1Nc1c(-c2c[nH]c3ccccc23)nc2cccc(C)n12	inactive
Cc1ccc(C(=O)N/N=C/c2ccc(-c3cccc(Cl)c3)o2)cn1	inconclusive: 12.6 µM [inhibitor, single point]
O=C(CCC(=O)c1cccs1)NCCc1ccc(F)cc1	inconclusive: 0.112 µM [inhibitor, full curve, poor fit]
N=c1c2c(-c3ccccc3)c(-c3ccccc3)n(Cc3ccccc3)c2ncn1CCO	inconclusive: 35.5 µM [inhibitor, single point]
O=S(=O)(c1ccc(NC2CCCCC2)cc1)N1CCOCC1	inconclusive: 35.5 µM [inhibitor, single point]
CCc1cccc2c(C(=O)COC(=O)c3ccccc3)c[nH]c12	inactive
O=C(Nc1cccc(-c2cccc(Cl)c2)c1)C1CCN(C2CCC2)CC1	inconclusive: 35.5 µM [inhibitor, single point]
Cc1ccc(C)c(N2CCN(S(=O)(=O)c3ccc4c(c3)NC(=O)CO4)CC2)c1	inconclusive: 35.5 µM [inhibitor, single point]
COc1cccc(C(=O)COc2ccc3c(C)cc(=O)oc3c2)c1	inactive
CCn1c2c(c(=O)n3ncc(C(=O)Nc4ccc(Cl)cc4C)c13)CN(Cc1ccc(OC)cc1)CC2	inconclusive: 2 µM [inhibitor, partial curve, poor fit]
Cc1ccc2nc3c(c(Nc4ccc(C)c(C)c4)c2c1)CCC3	inconclusive: 35.5 µM [inhibitor, single point]
CCC1CCCCN1C(=O)COc1ccc(N(C)S(=O)(=O)c2ccc(C)cc2)cc1 (stereo not given)	inactive
CCCCCCN=C1CC(C)(C)CC(=O)/C1=C(/O)CCC	inconclusive: 11.2 µM [inhibitor, partial curve]
Cc1cc(OCC(=O)Nc2ccc(CN3CCOCC3)cc2)c2c(C)cc(=O)oc2c1	inactive
COc1cc(NC(=O)COc2ccccc2[N+](=O)[O-])ccc1NC(=O)c1cccs1	inconclusive: 8.91 µM [inhibitor, partial curve]
O=C1C2CCCCN2C(=O)N1CCN1CCN(c2ccc([N+](=O)[O-])cc2)CC1 (stereo not given)	inconclusive: 35.5 µM [inhibitor, single point]
Clc1cccc(-n2ncc3c(NC4CCCCCC4)ncnc32)c1	inconclusive: 35.5 µM [inhibitor, single point]
COc1ccc(CCNC(=O)CCCCn2c(=O)c3ccccc3n(Cc3ccccc3)c2=O)cc1OC	inactive
Cc1oc2c(c(C)cc3oc(=O)c(CC(=O)N[C@@H](CCCNC(N)=O)C(=O)O)c(C)c32)c1C	inactive

SMILES	Potency
CN(c1ccccc1)S(=O)(=O)c1cccc(NS(=O)(=O)c2cccc(C(=O)O)c2)c1	inconclusive: 0.501 µM [inhibitor, full curve, poor fit]
CCOC1=C2CN(S(=O)(=O)c3ccc(C)cc3)[C@H](c3ccccc3)C[C@@H]2N(S(=O)(=O)c2ccc(C)cc2)[C@H](c2cccc(C)c2)C1	inconclusive: 4.47 µM [inhibitor, single point]
COc1ccc(CNc2nc3c(c(=O)[nH]c(=O)n3C)n2CCCc2ccccc2)cc1	inconclusive: 3.16 µM [inhibitor, full curve, poor fit]
Cc1ccc(C(C)C)c(OCc2nn(CC(=O)c3ccc(Cl)cc3)c3[n+]2CCCCC3)c1	inconclusive: 35.5 µM [inhibitor, single point]
CCOC(=O)c1c(NC(=O)C2(C)Cc3ccccc3C(=O)O2)sc2c1CCCC2 (stereo not given)	inconclusive: 0.631 µM [inhibitor, full curve, poor fit]
COCCNC(=S)N/N=C/c1ccc(N2CCOCC2)cc1	inconclusive: 35.5 µM [inhibitor, single point]
CC1(C)CC(=O)c2sc(NC(=O)CCS(=O)(=O)c3ccccc3)nc2C1	inconclusive: 31.6 µM [inhibitor, single point]
Clc1ccc2nc(-c3cccs3)c(Nc3ccc4c(c3)OCCO4)n2c1	inactive
CC1(C)OC(=O)C(=CNc2cccc(O)c2)C(=O)O1	inactive
O=C1C(Oc2ccccc2)C(c2cccs2)N1Cc1ccc2c(c1)OCO2 (stereo not given)	inconclusive: 35.5 µM [inhibitor, partial curve, poor fit]
Cn1c(=O)c(Nc2ccc(O)cc2)c2c3c(cccc31)C(=O)c1ccccc1-2	inactive
Cc1ccc(Cl)cc1NC(=O)Cn1c(SCC(=O)NCc2ccccc2)nc2ccccc21	inactive
CCOC(=O)c1c(NC(=O)CSc2cn(CCNC(=O)c3ccc(OCC)cc3)c3ccccc23)sc2c1CCC2	inconclusive: 6.31 µM [inhibitor, full curve, poor fit]
COc1ccc2cc(C(=O)C3CCCN(C(=O)c4snnc4C)C3)ccc2c1 (stereo not given)	inconclusive: 20 µM [inhibitor, single point]
O=C(NCc1ccccc1)c1nc(-c2ccc(Cl)cc2)n2c1CCCCC2	active: 11.2 µM
CN(C)S(=O)(=O)c1ccc(C(=O)Nc2nnc(SCc3ccccc3)s2)cc1	inconclusive: 4.47 µM [inhibitor, partial curve, poor fit]
Cc1cccc(NC(=O)NNC(=O)c2cc(-c3ccccc3Cl)nc3ccccc23)c1	inconclusive: 15.8 µM [inhibitor, single point]
Cc1ccc(-c2csc(=S)n2CC(=O)OCC(=O)NC(C)C(C)C)cc1 (stereo not given)	inconclusive: 0.447 µM [inhibitor, full curve, poor fit]
COCCCNC(=O)c1ccc(-n2c(-c3ccccc3)cc3c2CCCCC3)cc1	inconclusive: 25.1 µM [inhibitor, single point]
O=[N+]([O-])c1ccccc1C1Nc2cccc3cccc(c23)N1	inconclusive: 5.62 µM [inhibitor, partial curve]
COc1ccc(CCNc2nc(SCc3cccc(Cl)c3)nc3ccccc23)cc1OC	inactive

Source: PubChem BioAssay AID588855 (National Center for Advancing Translational Sciences (NCATS), 2011)
